# The supplement of paper PMC3334620
# The full ranking holds about 33,000 sequences; the median of “E-score (-0.5 to 0.5)” is about -0.01, and the highest 2% start at about 0.26. The list shows a part of the results.
# Biological target: Ste12 (UniProt P13574)
# Test: PBM E-score (8-mer binding enrichment) (E-score (-0.5 to 0.5)); higher = stronger / more preferred TF binding; most listed sequences are background and not binding sites
# Details: protein concentration: 200 nM; construct: GST-DNA-binding domain
# Summary of the method: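 E-scores (a modified Wilcoxon-Mann-Whitney statistic) were assigned by the Universal PBM Analysis Suite to every ungapped eight-base word pooled with its reverse complement. The input came from universal all-10-mer Agilent arrays made double-stranded by primer extension and probed with GST-tagged yeast transcription factors at about 100-200 nM. Fluorescent anti-GST detected bound protein, and masliner normalised the scans.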
row,Sequence,PBM E-score
1,ATCCGTTA,0.0767
2,AGTAATCA,-0.132
3,TCAGAAAA,0.0129
4,CCTGCTGA,0.202
5,CCCCTCTA,-0.16
6,AAGGTCAC,-0.0177
7,AACTACAG,0.0408
8,GAGCAAGC,-0.164
9,ACTTCTTC,0.0988
10,AATCTAGT,0.0842
11,AGGGGGAA,-0.147
12,CACCAGGA,0.0351
13,CCGAACAA,0.217
14,AAGGTTGA,-0.0139
15,CTCAGCAG,-0.121
16,CGTTCACA,0.0262
17,GCCAGGGC,-0.211
18,CTCTGCCC,-0.141
19,AAGGACTA,-0.127
20,AGCGGGCC,-0.053
21,CGCCCTCC,-0.144
22,TACGGTGA,0.132
23,ATTCAGGG,0.0985
24,CGCATTGA,0.153
25,CGGATGAC,-0.0265
26,CTCTGAAC,-0.092

row,Sequence,PBM E-score
1,CGCTTGAC,0.0189
2,GACCCTAA,-0.0649
3,GAGTTTAA,0.162
4,CGTATTAC,0.0975
5,GTGACGGA,0.0546
6,CAGCCGGG,-0.0945
7,ATACAGCA,-0.0378
8,TACTTGGA,-0.12
9,AAAAGACT,-0.128
10,AATGTCAT,0.0301
11,GACGAGAC,-0.0196
12,CGCTCTAA,0.00821
13,TATGTTAA,0.119
14,GGCCCTGA,-0.123
15,CGCGACTA,0.195
16,ATGCTCCC,-0.17
17,GTTTTCCA,0.093
18,TAGAGTCA,-0.156
19,CAAGGAAA,0.00394
20,ATCGGACG,-0.16
21,GGTGAAGA,-0.0834
22,ACTAGCGG,-0.109
23,CGAGGGGC,0.0568
24,ATTAGTTC,0.151
25,ACCTTTCC,-0.0347
26,CCCACTCG,-0.182

row,Sequence,PBM E-score
1,CGCCAATC,0.0688
2,ACCGTCAG,-0.0862
3,CAAACTCA,0.139
4,TAGGGCCA,-0.246
5,AAAAGTTG,0.127
6,TAGGCTGA,0.078
7,CATATATG,0.18
8,CGCAGGAC,-0.135
9,AGCAGGGG,-0.164
10,ATGGTGCC,-0.077
11,ACCAACGG,-0.0145
12,AGCGGTTG,-0.133
13,CGGCAGAC,-0.177
14,AACGTGCT,0.0409
15,AAATAATA,0.257
16,GCACCCGA,0.0237
17,AGACTTAT,-0.0276
18,CCCCGCCA,0.38
19,AGTATGCG,-0.13
20,CAGTTATG,0.132
21,AGGCGTCG,-0.26
22,AACCTTAG,-0.099
23,AACTCTCG,-0.0681
24,TGTGCTAA,0.18
25,GGACTTTA,0.0546
26,TAAATACA,0.179

row,Sequence,PBM E-score
1,TCGTGAAA,0.177
2,GGACCCGA,-0.0164
3,GTGACAAA,0.173
4,CACAGTCC,-0.0123
5,AATTTTGT,0.208
6,AGCACGAC,-0.0807
7,AATTCAGC,0.031
8,ATCCTGGC,-0.0346
9,GCACTAAC,-0.198
10,GAAAGGGA,0.138
11,AGCGGCTG,-0.146
12,GAACTCAA,-0.0569
13,CTGTGCTC,0.0387
14,GGCTACAA,0.0668
15,ACGAATGA,0.135
16,TGACAGCA,0.0883
17,ACGACGTG,-0.0844
18,CACACTAG,-0.0877
19,CGACTTGA,-0.108
20,GAATTGAA,0.278
21,CTAGCCTC,-0.138
22,ACCAGTGA,-0.165
23,ACTGAGCG,-0.0397
24,GGCGTGAA,-0.113
25,CAGCGGCA,0.0718
26,GCGTATCA,0.171

row,Sequence,PBM E-score
1,AAGTCCAC,-0.23
2,AATCGGAC,-0.0158
3,CCACTGTA,-0.0483
4,ATGGTGGG,-0.0923
5,CGCGCAGA,0.0999
6,CAGGCGAG,-0.215
7,AGGACATC,0.0881
8,TACTTACA,0.151
9,TAATGAAA,0.155
10,GCGGCATA,0.00072
11,AACTCCTC,-0.255
12,GCCCTACC,-0.0457
13,CCGCCGTC,-0.159
14,ATGGAGCA,-0.0515
15,GTTCAAGA,-0.0182
16,GCCTACCC,-0.172
17,ATCGGAAA,0.21
18,AGCAGACT,0.0216
19,TATATACA,0.132
20,ACCCGGCG,-0.107
21,ACCCAAAA,0.13
22,CAAGGCAA,-0.223
23,GGTACGTA,-0.137
24,CGTGCGAA,-0.00328
25,GCCTTCGC,0.0264
26,CCATATCC,0.0086

row,Sequence,PBM E-score
1,AGGGCGAT,-0.229
2,GCTCGAGC,0.183
3,AATAACTG,0.0809
4,ACGGGAAA,0.0814
5,GACAAGGC,-0.24
6,ACAGGCTG,-0.0716
7,CGCCTGAA,0.102
8,GAATTTAC,0.0246
9,ACAATGAC,-0.101
10,ATAGGTCA,-0.0255
11,AGGGGGTG,-0.307
12,CACACCCC,-0.113
13,ACATACGT,-0.177
14,CTATTTCC,0.0739
15,CAGACTGA,0.127
16,CACGATGG,-0.217
17,AATGCGAG,-0.064
18,GCACCTAA,-0.0248
19,AGTCGGTG,-0.0709
20,AGAAGTGG,-0.083
21,TATTAACA,0.164
22,AACAATCT,0.104
23,TGACATAA,0.268
24,AAGGTAAA,0.189
25,CGCGTCGC,0.0419
26,ACCATTAT,0.0811

row,Sequence,PBM E-score
1,CATGTGAC,-0.101
2,AACATAGA,0.287
3,AACTTCTT,-0.105
4,ACCGCAGG,0.059
5,TAAACGAA,0.02
6,ACATGTAT,-0.0408
7,CGCCCTCA,-0.166
8,CGCAAGCA,-0.154
9,AGATGACC,-0.128
10,ATGAAGGC,-0.1
11,CTTAACCA,0.176
12,GGACTAGA,-0.124
13,ACGCGAAT,0.0971
14,AGCTGTGC,-0.129
15,AAGCATGC,-0.116
16,GAAAAGAA,0.209
17,CAGGATGC,-0.0687
18,CGGTAGCA,-0.114
19,ACGCGGCA,-0.00717
20,AGGGCCGA,-0.0149
21,CTGCTTTC,-0.0585
22,ATGGACAC,-0.0721
23,AAGTAAAT,0.261
24,AGCAAGAG,-0.0786
25,GCATATGC,-0.088
26,ACGCCGGC,0.21

row,Sequence,PBM E-score
1,ACTGAACA,0.0671
2,GAGGATAA,0.0948
3,TACACATA,-0.0354
4,AGGTAGCG,-0.231
5,AGGGCTGA,-0.134
6,ATAGATAT,0.197
7,ACAACCTG,-0.016
8,ATACACCA,-0.0593
9,AGTGGGAG,-0.0202
10,AGTGTCGC,0.0423
11,GCCTCGAC,0.0326
12,ACGTAAGG,-0.196
13,CCATACTA,0.00663
14,CTCGTACC,-0.0643
15,ATTTGATA,0.258
16,AGCATACT,-0.0969
17,AGATCTAG,-0.0252
18,TCTGCAGA,-0.134
19,TCTACGAA,-0.129
20,GTATTTAA,0.249
21,ATTTTCCC,0.173
22,GGCACACC,-0.109
23,CGACTAAG,-0.0345
24,CGTCCCGA,-0.065
25,CAGAACGG,-0.162
26,ACACGTAT,0.0228

row,Sequence,PBM E-score
1,CCCTAGAA,0.056
2,CTGAAACC,0.47
3,AAACAAAT,0.28
4,GCAAAACC,0.0345
5,CAATTACG,0.0434
6,AATCACAG,0.0535
7,ACTGATCC,0.058
8,AACCACCC,0.0945
9,GACTATAA,0.0113
10,GCCCAGCC,0.0397
11,AAAACGGT,0.152
12,ATTTTGAC,0.202
13,CTACCGAC,-0.0631
14,CCCGAACA,0.128
15,GGTTGCAA,0.0835
16,AGAATGTA,0.0693
17,ACGCCGCG,0.00025
18,TACGCGGA,-0.103
19,AATAGCCC,-0.0699
20,ATTGGTTA,0.241
21,CGGAAATA,0.217
22,AACTGCTT,-0.081
23,ACGATCAC,-0.0748
24,ATGCTGGC,-0.00831
25,CGAAATTC,0.158
26,AAGTACCT,-0.297

row,Sequence,PBM E-score
1,ACGATAGA,-0.15
2,ACGCACGT,-0.159
3,AAAAGAAT,0.266
4,GACGCGAA,0.0261
5,AGATCCGG,-0.0245
6,CCATGTTC,-0.0544
7,ACCACTCC,0.16
8,AGAAGATG,0.0434
9,ACAGGTAT,-0.00823
10,AGCCTTTA,0.0298
11,GTGCGAAC,-0.216
12,ATCGCGGA,-0.0253
13,CTACAGTC,-0.21
14,TACGACAA,0.0899
15,CGCGTACC,-0.113
16,CCCCGTGC,0.149
17,CCTTTATA,-0.034
18,ACATAACG,0.0659
19,ATTTGCGA,0.0925
20,CCTCCACG,-0.253
21,CATCACCA,0.106
22,AAGGGGAG,-0.0849
23,CGGGTAGA,-0.0167
24,GTTTGACA,0.0294
25,CCCGCCGC,0.31
26,TGAAAGAA,0.131

row,Sequence,PBM E-score
1,CTGCAGTA,-0.213
2,TCTAAAAA,0.235
3,ACCTTTTC,0.00718
4,ACGCTGGA,-0.0162
5,CTGTTATC,0.101
6,CAGGGAGG,-0.115
7,CCACGACA,-0.104
8,GATATTTA,0.169
9,CGTCAACC,-0.288
10,TAGTTGCA,0.12
11,GTGTCCAA,-0.221
12,GTAATTAC,0.0645
13,ACCGTAGC,-0.104
14,CAGAAGCG,0.00541
15,CGTGCGGC,-0.153
16,GTTTTAAA,0.378
17,GCGGGTGA,0.0419
18,GGAGAATA,0.0628
19,ACCTCATG,-0.0225
20,GCCGCAGC,0.00254
21,TTTACAAA,0.294
22,AGATGGTG,-0.0651
23,ATTGAAAT,0.233
24,ATTGCAGG,-0.0276
25,AGTATCAA,0.217
26,CCGCTTCG,-0.179

row,Sequence,PBM E-score
1,CGGTTGGA,-0.0539
2,AACAAGCA,0.116
3,CCGGCGCG,0.0515
4,TATGTAAA,0.232
5,ATCATCAG,-0.128
6,ACGGACGC,-0.251
7,ACCGCGCA,0.126
8,GAACGAGA,0.00429
9,GTTGGCCA,-0.046
10,CAACGCGA,-0.00853
11,ATTCGGTC,0.0374
12,GAGACAGA,0.0576
13,CCACTACG,-0.142
14,GGTGGGCA,0.0362
15,AAACGTCA,0.0944
